Laboratory results as given in the supplement of paper PMC3334620.
Over roughly 33,000 sequences, “E-score (-0.5 to 0.5)” has its median near -0.041; the highest 2% begin near 0.37. This is one part of the list.

The sequences below were run against T1, Ecm22 (UniProt Q05958) (assay: PBM E-score (8-mer binding enrichment) (E-score (-0.5 to 0.5)); higher = stronger / more preferred TF binding; most listed sequences are background and not binding sites). Details: protein concentration: 200 nM; construct: GST-full length.
T1 sequence: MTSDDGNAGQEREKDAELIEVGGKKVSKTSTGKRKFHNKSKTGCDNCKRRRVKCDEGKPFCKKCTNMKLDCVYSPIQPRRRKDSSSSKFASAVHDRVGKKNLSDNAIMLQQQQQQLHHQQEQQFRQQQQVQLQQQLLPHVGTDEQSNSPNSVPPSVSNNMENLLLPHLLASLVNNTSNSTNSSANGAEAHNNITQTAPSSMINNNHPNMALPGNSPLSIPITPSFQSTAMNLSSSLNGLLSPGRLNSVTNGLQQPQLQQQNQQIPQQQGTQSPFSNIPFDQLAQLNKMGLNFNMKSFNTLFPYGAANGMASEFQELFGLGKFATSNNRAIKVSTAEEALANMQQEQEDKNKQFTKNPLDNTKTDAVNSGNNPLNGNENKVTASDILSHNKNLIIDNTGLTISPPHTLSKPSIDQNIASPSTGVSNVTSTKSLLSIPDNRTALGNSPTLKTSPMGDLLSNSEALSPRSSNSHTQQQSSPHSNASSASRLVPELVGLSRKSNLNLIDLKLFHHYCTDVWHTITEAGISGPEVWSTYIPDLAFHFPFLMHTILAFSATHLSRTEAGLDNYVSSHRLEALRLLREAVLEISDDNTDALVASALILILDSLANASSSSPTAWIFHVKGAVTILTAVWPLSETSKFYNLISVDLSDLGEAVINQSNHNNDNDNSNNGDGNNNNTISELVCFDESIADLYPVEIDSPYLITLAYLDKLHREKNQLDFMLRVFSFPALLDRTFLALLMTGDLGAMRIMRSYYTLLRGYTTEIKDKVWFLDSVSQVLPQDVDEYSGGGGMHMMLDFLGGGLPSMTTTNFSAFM
Method: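 Universal 'all 10-mer' protein binding microarrays (Agilent AMADID 015681) probed with GST-tagged S. cerevisiae TFs (full-length or DBD) made by in vitro transcription/translation (PURExpress), about 100-200 nM. Bound TF was detected with fluorescent anti-GST. Each ungapped 8-mer (which stands for itself and its reverse complement) is scored by the PBM enrichment score (E-score), a modified Wilcoxon-Mann-Whitney statistic from -0.5 to +0.5, computed with the Universal PBM Analysis Suite. Scale: above 0.35 generally sequence-specific binding.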

| Sequence | PBM E-score |
| --- | --- |
| AAAATATA | 0.0721 |
| AGTTTGGA | -0.0551 |
| ATGCAAGG | -0.193 |
| AATCAGGT | 0.00411 |
| TCAACTCA | -0.134 |
| GAGCCAAA | -0.159 |
| AATCTCCC | -0.117 |
| AAGTTCAA | -0.0634 |
| AGCTACCA | -0.228 |
| CTATAAAG | -0.263 |
| GATTTGCC | 0.0159 |
| GACCGTGA | -0.241 |
| CACCCATC | -0.0932 |
| AAAGCAAA | 0.057 |
| AGCTGTTC | -0.102 |
| CTGTGGCC | -0.212 |
| CAATTAAG | -0.0761 |
| AAACAGGT | -0.0509 |
| AGCGCAAG | -0.183 |
| AGTGGGTC | -0.29 |
| CTCCGTCA | -0.137 |
| AGGCACCT | -0.354 |

| Sequence | PBM E-score |
| --- | --- |
| AATCTGCT | -0.146 |
| AGGTTGCC | -0.308 |
| CTCAATCA | -0.213 |
| CCTGGCCC | -0.206 |
| CTAAGTAA | 0.0684 |
| ACGTAACG | 0.16 |
| AGCGTAAC | 0.111 |
| CCGTTACG | 0.264 |
| GACGAGTC | 0.115 |
| AAAGTTGG | -0.0592 |
| GGTGCCAC | -0.154 |
| TAATGATA | 0.17 |
| AAAATGAT | 0.109 |
| ACGCTCTA | 0.0214 |
| CTTTCCCA | -0.21 |
| CGCTGCGA | 0.111 |
| GCAAAGGC | -0.213 |
| CACATAAG | -0.156 |
| AGTATACT | 0.102 |
| CACCGGGA | -0.197 |
| ATTAGAAA | 0.123 |
| ACGCCGAT | 0.0699 |

| Sequence | PBM E-score |
| --- | --- |
| GAGCGTAA | 0.0493 |
| AGCCAACT | -0.256 |
| AACTGATT | -0.0943 |
| GGAAGACC | -0.116 |
| CCATATAA | 0.0333 |
| AGCGTGCG | 0.13 |
| CATTTAGC | 0.0683 |
| GTAGAAGA | 0.0356 |
| AATACGAA | 0.419 |
| CCGCCCTA | -0.29 |
| AACAGCTA | -0.146 |
| GAAGAGAC | 0.0183 |
| CACAACCC | -0.0182 |
| CCGATCGG | 0.105 |
| AAATGCTT | -0.178 |
| AATCCGCC | -0.139 |
| CTCCATGC | -0.314 |
| CCCCTTCA | -0.439 |
| ACGTTAGT | 0.0887 |
| ATCCAGAT | -0.0675 |
| TCAGCACA | -0.0232 |
| ACGGATGA | 0.19 |

| Sequence | PBM E-score |
| --- | --- |
| GGCTAGGA | -0.21 |
| GTTCGGAA | 0.13 |
| AGTGGCGC | 0.0668 |
| GCGTACCA | 0.273 |
| GGCAGACC | -0.334 |
| GAGTCGGC | -0.00782 |
| AGGGTGTG | -0.225 |
| CTCTTTCA | -0.0714 |
| CGTCAGAA | -0.0632 |
| ACCTTCGT | 0.32 |
| AACCTGGT | 0.0484 |
| ACTAGCCT | -0.2 |
| ACACCCCT | -0.271 |
| ACCAGGAA | -0.106 |
| CAATCTGA | -0.149 |
| CAGCTCAC | -0.154 |
| CTTTGTCC | -0.044 |
| ACCAACAG | -0.106 |
| ACCCCGCC | 0.0376 |
| CCCGCCCA | 0.0143 |
